This is one part of the list.
B1: chr11:73394502:73394603:+|CDS|ENSG00000054967|msi1|FALSE|unique (ssRNA)
RNA: GGGAGUUCUACAGUCCGACGAUCCACCAUCUCCACACCGUGCAGGGCCUGGCCUCGCUCUCUGGCCCCUGCUGCUCCCGCUGUAGCCAGAAGAAGUGGCCCGAGGUGCUGCUGUCCCCUGAGGCUGUAGCCGCCACUACUCCUCAACAGAGGAUUGAGCAUCA
B2: chr17:69546800:69546959:+|3pUTR|ENSG00000108984|unk|FALSE|unique (ssRNA)
RNA: GGGAGUUCUACAGUCCGACGAUCUCAACUUCAUAGGACUUUUUUUUUUUUUAACUUUUCAAAUGGAAGGUGCAGUUUUCAAUUAGGCCUCUGAAAAUUUACAUAGUCAGAUGGAAAAAUGCCAGAGUAAAAUCUAGGAAGAAGCAACAGAGGAUUGAGCAUCA
B3: ENSG00000117868:stop:overlap|stop_codon|ENSG00000117868|stop_codon|NA|stop_codon (ssRNA)
RNA: GGGAGUUCUACAGUCCGACGAUCAAGGCUGGACCCAGUGGUAUGACCUCACGGAAGAUGGGACGAGGCCUCAGGCGAUGACAUAGCCGCAGCAGGCAGGAGGCGUCCUCUUCAGCGUAGCUCUCCACCUCUACCCGGAACACACAACAGAGGAUUGAGCAUCA
B4: ENSG00000070961:be:win_3451|CDS|ENSG00000070961|bound_else_gene|NA|bound_elsewhere_windowed (ssRNA)
RNA: GGGAGUUCUACAGUCCGACGAUCAGGAUAGAAGAUUCAGAGCCUCAUAUCCCCCUUAUUGAUGACACUGAUGCCGAAGAUGAUGCUCCUACAAAACGUAACUCCAGUCCUCCACCCUCUCCCAACAAAAAUAACAAUGCUGUUCAACAGAGGAUUGAGCAUCA
B5: chr9:24545423:24545649:-|CDS|ENSG00000205442|control|control|control (ssRNA)
RNA: GGGAGUUCUACAGUCCGACGAUCCCUGCCCCUCUCAGCCUUCCAUGGAGUCAAAGGCUGUUUAGAAUGUGACCCCAAAUUUAUAGAGGAUGUUGGCUCCUUGCUGGGAAAUCUGAUACCUUCAGAAGUCCCCGGCCGAACUCACAACAGAGGAUUGAGCAUCA
B6: chr2:48379045:48379146:+|3pUTR|ENSG00000170802|unk|total|mutant (ssRNA)
RNA: GGGAGUUCUACAGUCCGACGAUCCCUUAUCCUCUUUUCUGAUGCCGCAUAAAAAUUGUCCCGGUUUGAGUUAUAACUGCCAGCCGAUGACCAGUCACAAGUGAACCACUUCUCAGUUGCCAAUCUUUGCUCAUAUUAAAAACACAACAGAGGAUUGAGCAUCA
B7: chr19:45844017:45844118:-|CDS|ENSG00000125755|msi1|total|mutant (ssRNA)
RNA: GGGAGUUCUACAGUCCGACGAUCGCCCGCCAGAGACCCAUGUUCAUGUCUGAGGUGAUCCAGGCCUAUGAAACUCUGCAUGGCCGGUCAUUGUCCUCCCCCCUCCCCCUGCCUUCUCUUCACUGGCCAGUCUGCUCUUUCUUUCAACAGAGGAUUGAGCAUCA
B8: chr19:12791443:12791544:+|5pUTR|ENSG00000171223|unk|FALSE|unique (ssRNA)
RNA: GGGAGUUCUACAGUCCGACGAUCGGGGGGCGCGGGGGCCCGGCUCCGGCGACGGCCAAUCGGAGCGCACUUCCGUGGCUGACUAGCGCGGUAUAAAGGCGUGUGGCUCAGGCUGAGCGGCUGGGACCUUGAGAGCGGCCAGGCCAACAGAGGAUUGAGCAUCA
B9: ENSG00000071537:stop:overlap|stop_codon|ENSG00000071537|stop_codon|NA|stop_codon (ssRNA)
RNA: GGGAGUUCUACAGUCCGACGAUCAUACAUUUGGAGCUCUUGGGGGCAAUCUAAUAGCCCACAUGGUUUUGGUAAGUAGACUUUAGUGGAAGGCUAAUAAUAUUAACAUCAGAAGAAUUUGUGGUUUAUAGCGGCCACAACUUUCAACAGAGGAUUGAGCAUCA
B10: chr12:12643182:12643283:+|3pUTR|ENSG00000111269|unk|total|mutant (ssRNA)
RNA: GGGAGUUCUACAGUCCGACGAUCCUGGAGUUGUGCACAGCACCGCAGCCCGUGGGCCUGGCUGGGGGUGCAGAAGGGCAGGGCCGUUCUUUCCAUUUCCCCUUGCAGCUACACUUACUUUCUCCCUGACUACCAAAUGGAGUGCAACAGAGGAUUGAGCAUCA
B11: ENSG00000070961:be:win_3901|3pUTR|ENSG00000070961|bound_else_gene|NA|bound_elsewhere_windowed (ssRNA)
RNA: GGGAGUUCUACAGUCCGACGAUCAAGUGACCUGUGGAUCAUCAGUAGUACCCAAGCAUGGUCCUGAACAGUGUAUUAGCAGAGCUUUAGUUUAUCUCAGUCCUGGAUGGGAGAGAGAGGGAGGAGUAAAACUGGGCAAGACAACAACAGAGGAUUGAGCAUCA
B12: chr1:165890246:165890361:+|CDS|ENSG00000143179|unk|FALSE|unique (ssRNA)
RNA: GGGAGUUCUACAGUCCGACGAUCCUCCUGGGGCAGAAUGAGGUGGACUAUCGCCAGAAGCAGGUGGUCAUCCUGAGCCAGGAUAGCUUCUACCGUGUCCUUACCUCGGAGCAGAAGGCCAAAGCCCUGAAGGGCCAGUUCAACCAACAGAGGAUUGAGCAUCA
B13: chr6:142752714:142752806:-|3pUTR|ENSG00000010818|msi1_unk|FALSE|overlapping (ssRNA)
RNA: GGGAGUUCUACAGUCCGACGAUCUUUUCUUUACUUUGCUUAUAUUCUUAUAAGCAUUUUUUAGCAGUAAUUUGUACAUAUUUUAGAAUUUGUGUAUCUGCUUUGUAAUAAAUGUAAUUUCUUUCCUUUUUUGGACACUUGGAUCAACAGAGGAUUGAGCAUCA
B14: chr11:108106880:108106981:+|3pUTR|ENSG00000166266|msi1|FALSE|unique (ssRNA)
RNA: GGGAGUUCUACAGUCCGACGAUCUUAGUGGUAUGGCAAUAAGACACUUCAGAGGCUAUCUUAACCUCUGAAUACCCAUCUUCUAGUUUAAAGACAGAGACAUCCCAUCUGGAAAAUGUUAACUUGUGUUGCCAUCUCGUUGCCCAACAGAGGAUUGAGCAUCA
B15: chr7:130166276:130166377:-|3pUTR|ENSG00000146842|msi1|FALSE|unique (ssRNA)
RNA: GGGAGUUCUACAGUCCGACGAUCUCUCUGAGCCACUGACUCUUCUGAAAUAAAAUACACAUGGGUGUAUGUUACAGACUCUUUAGAUUUAACAGAAAAUGUAGCUGUUAUGAAAUGUAAUUGUAAAAAUAUGUCCCGUAUCUUCAACAGAGGAUUGAGCAUCA
B16: ENSG00000176396:stop:overlap|stop_codon|ENSG00000176396|stop_codon|NA|stop_codon (ssRNA)
RNA: GGGAGUUCUACAGUCCGACGAUCCUGAAGUUAUCAACCCUCUGAUAGAAGAACUUGGUUGCGAUAAGUUUAUCAAUAGAGAAUAGUUAUGUGGUGACACUACUUCAAGAGAACCUCUGCAUUCCAGUCAUACCAAUCCUGCAACAACAGAGGAUUGAGCAUCA
B17: chr5:91374913:91375023:-|CDS|ENSG00000113369|unk|FALSE|bound_elsewhere (ssRNA)
RNA: GGGAGUUCUACAGUCCGACGAUCGAGACGUGGAAUGGCAAGUUGCUGAAAAUUCCACCAGUUUCUCCCUCUAUCCUCGACUGUAGUAUAAUCCGCGUGGAAUAUUCACUAAUGGUAUGUACACAUUUAAGAGGUUUUUUCCUUCAACAGAGGAUUGAGCAUCA
B18: chr1:151291320:151291421:+|3pUTR|ENSG00000143373|unk|FALSE|unique (ssRNA)
RNA: GGGAGUUCUACAGUCCGACGAUCAAUAUUUUGUUAAUUCCUGUCUCUCCAACCUGAAGAAGAAGAGCAUUUGAGGAUUAUUCUAGUUAUUUGCAACCUCCCUUUGGGUUUGGCCCUGGAGUCCUAGUAGAGUGGACCCUCCAUCAACAGAGGAUUGAGCAUCA
B19: chr3:138622260:138622368:+|CDS|ENSG00000158234|unk|FALSE|unique (ssRNA)
RNA: GGGAGUUCUACAGUCCGACGAUCAUUAGUGGGCAAAGAAACAUUCUAUGUUGGAGCUGCAAAGACAAAAGCGACCAUAAAUAUAGACGCUAUCAGUGGUUUUGCUUAUGAAUAUACUCUGGAAAUUAAUGGGAAAAGUCUCAACAACAGAGGAUUGAGCAUCA
B20: chr15:40779088:40779310:-|CDS|ENSG00000104129|control|control|control (ssRNA)
RNA: GGGAGUUCUACAGUCCGACGAUCGAGAGGACCCAGAAACUUGAUGAGAAAAGGAAGAAAGUGAAGCUUGGUAGGUGCCAUCAUAGUGCUCGGUGGCCUGUGGUUUCCUGUGGUCAUUUUCAUUCAUCUCCCUCACCUGAAGCUCAACAGAGGAUUGAGCAUCA
B21: chr14:92131016:92131127:+|CDS|ENSG00000165934|unk|FALSE|bound_elsewhere (ssRNA)
RNA: GGGAGUUCUACAGUCCGACGAUCACCCUUUCUGGGGUCCAAGAAGAAUCUGCCCUUUGCUAUCUUCUCCAAGUUGAUGAGUUUAGAUUUUUAUUGGACUGUGGCUGGGAUGAGCACUUUUCUAUGGAUAUUAUUGAUUCCCUGCAACAGAGGAUUGAGCAUCA
B22: chr1:55154109:55154210:-|CDS|ENSG00000162402|msi1|FALSE|unique (ssRNA)
RNA: GGGAGUUCUACAGUCCGACGAUCCCUUAGUGAUGCAUAUGCAGUGAAAGAAGCAAUCAAGAGGAGCUACAUCAUCAAGUGCAUAGAAGAUAUUAAGAGGGUUGGUUUCAGCUUUUAUCUGAUUUUGUUGUUAGAGCAACAGUACAACAGAGGAUUGAGCAUCA

Each binder was assayed against MSI1 full-length (mouse, UniProt Q61474 1-362) (assay: nsRBNS (natural sequence RNA bind-n-seq); RBNS binding buffer (assumed for nsRBNS): 25 mM Tris pH 7.5, 150 mM KCl, 3 mM MgCl2, 0.01% Triton X-100, 500 ug/ml BSA, 20 U/ml SUPERase-In, 4 C; UNK is unkempt and MSI1 is Musashi-1; names of the RNAs are library labels; protein concentration not given here; high values mean tight binding).
Sequence of UniProt Q61474 (Q61474 whole entry): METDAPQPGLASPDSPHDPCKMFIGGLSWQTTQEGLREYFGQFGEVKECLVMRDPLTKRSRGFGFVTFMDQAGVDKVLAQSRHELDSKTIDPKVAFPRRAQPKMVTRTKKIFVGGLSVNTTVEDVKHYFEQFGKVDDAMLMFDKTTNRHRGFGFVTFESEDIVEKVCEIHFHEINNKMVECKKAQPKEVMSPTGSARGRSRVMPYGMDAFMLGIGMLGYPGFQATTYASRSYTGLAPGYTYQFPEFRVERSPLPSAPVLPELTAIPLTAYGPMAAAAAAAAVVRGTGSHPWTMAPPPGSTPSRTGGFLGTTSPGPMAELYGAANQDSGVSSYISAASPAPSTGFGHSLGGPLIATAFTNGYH

Row | Binder | binding signal [enrichment R]
1 | B1 | 0.658
2 | B2 | 1.82
3 | B3 | 0.361
4 | B4 | 0.757
5 | B5 | 0.774
6 | B6 | 0.364
7 | B7 | 0.782
8 | B8 | 0.568
9 | B9 | 0.304
10 | B10 | 0.811
11 | B11 | 3.09
12 | B12 | 0.379
13 | B13 | 3.5
14 | B14 | 0.346
15 | B15 | 3.28
16 | B16 | 0.992
17 | B17 | 0.344
18 | B18 | 0.839
19 | B19 | 0.539
20 | B20 | 0.755
21 | B21 | 0.346
22 | B22 | 0.478
